The source of these data is PubChem BioAssay AID1745853 (National Center for Advancing Translational Sciences (NCATS), 2022).

“And” between values parts separate entries of the source, which are not always exact repeats. Equal entries are not always repeated. The list shows a part of the results. The main result of the screen is listed elsewhere. These columns were measured beside it and carry no call.

Experiment in all cases: Primary Screen for Target Class Profiling of Small Molecule Inhibitors of Methyltransferases
Test [1] deals with Glycine N-methyltransferase (Homo sapiens) (UniProt Q14749). The note with it: purified enzyme, MTase-Glo SAH luminescence; measured here: GNMT inhibition; at 40 µM; stronger effect = lower value. The essentials: (§1)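 Each enzyme was reacted with SAM and its substrate, with compounds tested once at 40 uM; SAH formed was read by MTase-Glo luminescence.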
Test [2] concerns the target Guanidinoacetate N-methyltransferase (Homo sapiens) (UniProt Q14353). The following applies: purified enzyme, MTase-Glo SAH luminescence; measured here: GAMT inhibition; at 40 µM; stronger effect = lower value. The essentials:
as §1

Test [3] addresses Histamine N-methyltransferase (Homo sapiens) (UniProt P50135). The following applies: purified enzyme, MTase-Glo SAH luminescence; measured here: HNMT inhibition; at 40 µM; stronger effect = lower value. The essentials:
as §1

Test [4] deals with Nicotinamide N-methyltransferase (Homo sapiens) (UniProt P40261). The note with it: purified enzyme, MTase-Glo SAH luminescence; measured here: NNMT inhibition; at 40 µM; stronger effect = lower value. The essentials:
as §1

Test [5] deals with Phenylethanolamine N-methyltransferase (Homo sapiens) (UniProt P11086). The following applies: purified enzyme, MTase-Glo SAH luminescence; measured here: PNMT inhibition; at 40 µM; stronger effect = lower value. The essentials: as §1
% is set by controls: 0 for no effect and ±100 for the full control effect.

`CCn1ncc(N2CCC(NC(=O)c3ccccc3)CC2)cc1=O`: the activity change, negative = inhibition is -2.77% in test [1]; -4.77% in test [2]; -2% in test [3]; -8.66% in test [4]; -1.16% in test [5].

On to `Cc1cn[nH]c1`, for which the activity change, negative = inhibition in test [1] was 9.96%; in test [2], 8.87%; in test [3], 12.3%; in test [4], -6.33%; in test [5], -4.42%.

Turning to `CCc1cc2c(cc3n2CC(C)(C(=O)NC2CCCCC2)N(c2ccc(C)c(C)c2)C3=O)s1` (stereo not given), the activity change, negative = inhibition was -3.27% in test [1]; 3.01% in test [2]; 4% in test [3]; 7.94% in test [4]; -0.574% in test [5].

Take `O=C1NC2(CN([S+](=O)([O-])c3ccccc3)C2)Oc2ccccc21`: the activity change, negative = inhibition is -8.27% in test [1]; -2.97% in test [2]; -6.33% in test [3]; -21.8% in test [4]; -4.23% in test [5].

Turning to `COc1ccc(Cl)cc1NC(=O)CCC1CCCN(C(=O)c2ccnn2C)C1` (stereo not given), the activity change, negative = inhibition in test [1] is -7.42%; in test [2] it was -9.43%; in test [3] it was -2.67%; in test [4], -13.3%; in test [5] it was -7.86%.

With `CN(C)C(=O)N1CCCn2nc(CNC(=O)Nc3cccc(C#N)c3)cc2C1`, the activity change, negative = inhibition is -4.36% in test [1]; -2.49% in test [2]; -2.34% in test [3]; -0.998% in test [4]; -1.69% in test [5].

In the case of `CC(C)=CCO[C@H]1CCOC[C@H]1NC(=O)CCc1ccc(=O)[nH]n1`, the activity change, negative = inhibition in test [1] was -1.62%; in test [2], -2.18%; in test [3], 1.52%; in test [4], -0.189%; in test [5] it was 0.021%.

Turning to `Cc1ccc(C(=O)N2CCC(N3C(=O)C4(CCCC4)C3c3scnc3C)CC2)cn1` (stereo not given), the activity change, negative = inhibition in test [1] is -0.915%; in test [2], -1.31%; in test [3], 0.232%; in test [4], -6.26%; in test [5], -3.81%.

For the molecule `CC(C)[C@@H](C(=O)O)N1Cc2c(cc(O)c3c2O[C@]2(C3)[C@H](C)CCC3C(C)(C)[C@H](O)[C@H](O)C[C@@]32C)C1=O` (stereo not given in full), the activity change, negative = inhibition in test [1] is -3.63%; in test [2] it was 6.16%; in test [3], -1.46%; in test [4] it was -8.06%; in test [5], 1.19%.

Turning to `CC(CC12CCCN1C(=O)C1CCCN1C2=O)OC(N)=O` (stereo not given), the activity change, negative = inhibition is 3.49% in test [1]; 6.85% in test [2]; 5.64% in test [3]; -6.94% in test [4]; 2.96% in test [5].

Regarding `CC(C)C[C@@H]1NC(=O)[C@@H](Cc2ccccc2)NC(=O)C(CCCCCC(=O)C2CO2)NC(=O)[C@@H]2CCCCN2C1=O` (stereo not given in full), the activity change, negative = inhibition is 2.17% in test [1]; -4.82% in test [2]; 13.5% in test [3]; -10% in test [4]; 1.71% in test [5].

For the molecule `CC(C)CC(=O)OC1OC=C(CO[C@@H]2O[C@H](CO)[C@@H](O)[C@H](O)[C@H]2O)C2CC(O)C(O)(CO)C12` (stereo not given in full), the activity change, negative = inhibition in test [1] is -4.89%; in test [2], -0.298%; in test [3], -0.596%; in test [4], -11.6%; in test [5] it was 1.46%.

Turning to `CCOCC(=O)N1C[C@@H](CO)[C@H](c2ccccn2)C1`, the activity change, negative = inhibition in test [1] was -0.559%; in test [2], -3.8%; in test [3], 0.332%; in test [4], -1.78%; in test [5], 0.136%.

Consider `CC1(C)C2CCC1(C)C(OC(=O)C(O)(CC(=O)O)CC(=O)O)C2` (stereo not given), for which the activity change, negative = inhibition in test [1] is -0.124%; in test [2], 1.55%; in test [3], 1.35%; in test [4], -10.7%; in test [5], 3.11%.

As for `CC1(C(=O)NCc2ccccc2)Cn2nc(-c3ccccc3)cc2C(=O)N1Cc1ccccc1` (stereo not given), the activity change, negative = inhibition was 0.517% in test [1]; 1.07% in test [2]; 1.38% in test [3]; -3.48% in test [4]; 2.46% in test [5].

`CCN1C(=O)c2c(C(=O)NCc3cccc(Cl)c3)ncn2CC1(C)C(=O)NC1CCCC1` (stereo not given): the activity change, negative = inhibition in test [1] is -5.55%; in test [2], 3.67%; in test [3], -5.31%; in test [4], -5.8%; in test [5], -0.297%.

Consider `Cn1c2c(c3ccccc31)C(C(=O)NCc1ccc(F)cc1)N(c1ccc(Cl)cc1)C(=O)CS2` (stereo not given), for which the activity change, negative = inhibition was -3.72% in test [1]; 0% in test [2]; 2.29% in test [3]; 5.2% in test [4]; 4.83% in test [5].

On to `Cc1cc(C)n(Cc2ccc(C(=O)N3CCC(N4C[C@H](O)C[C@H]4C(=O)NC4CCCCC4)CC3)o2)n1`, for which the activity change, negative = inhibition is -2.92% in test [1]; 0.13% in test [2]; 0.475% in test [3]; -5.81% in test [4]; 0.343% in test [5].

With `COc1ccccc1NC(=O)Cn1nc2n(CCc3ccccc3)c(=O)c3ccccc3n2c1=O`, the activity change, negative = inhibition in test [1] was -1.24%; in test [2] it was 5.38%; in test [3], 1.6%; in test [4], 0.955%; in test [5], 2.51%.

With `O=C(Nc1ccccc1Br)NC1CCN(c2ccc(C(F)(F)F)cn2)C1` (stereo not given), the activity change, negative = inhibition in test [1] was 1.87%; in test [3] it was 0.724%.

On to `CC1(C(=O)NC2CCCC2)Cn2c(cc3ccccc32)C(=O)N1c1ccc(CN2CCOCC2)cc1` (stereo not given), for which the activity change, negative = inhibition in test [1] is -0.189%; in test [2], -1.67%; in test [3], -3.11%; in test [4] it was 0.644%; in test [5] it was -2.11%.

As to `O=C(C1CCCN1[S+](=O)([O-])c1cccc(C(F)(F)F)c1)N1CCC(c2nc3ccncc3[nH]2)C1` (stereo not given), the activity change, negative = inhibition in test [1] was -6.95%; in test [2] it was -9.84%; in test [3], -8.93%; in test [4], -11.9%; in test [5], -5.44%.

For the molecule `O=C(NC[C@H](O)CN1CCc2ccccc2C1)c1cc(NC2COC2)ncn1`, the activity change, negative = inhibition in test [1] was 1.26%; in test [2], 1.72%; in test [3], 6.28%; in test [4], -20.1%; in test [5] it was 2.16%.

For `COc1cc2ncnc(Sc3nnc(C)s3)c2cc1OC`, the activity change, negative = inhibition in test [2] was 0.916%; in test [4] it was -12.7%; in test [5], -3.11%.

In the case of `COc1ccccc1CN1C(=O)c2cc3occc3n2CC1(C)C(=O)NC1CCC(C)CC1` (stereo not given), the activity change, negative = inhibition in test [1] was -0.903%; in test [2] it was -18.7%; in test [3] it was 5.35%; in test [4], 3.81%; in test [5], 0.484%.

Turning to `CN1CCc2c(n(Cc3ccc(C(=O)NO)cc3)c3ccccc23)C1`, the activity change, negative = inhibition in test [1] is -7.44% and -2.82%; in test [2] it was 5.54%; in test [3], -72.1% and -80.3%; in test [4], 1.47% and -8.33%; in test [5], 30.8% and 0.364%.

With `CC(=O)OC1CC(O)(C(C)C)C2C(OC(=O)c3ccc(O)cc3)C=C(C)C(=O)CC12C` (stereo not given), the activity change, negative = inhibition in test [1] is 3.45%; in test [2], 4.23%; in test [3], 6.66%; in test [4] it was -7.45%; in test [5] it was 6.14%.

`O=C(CCc1nnc2n(Cc3ccc(F)cc3)c(=O)c3ccccc3n12)Nc1cccc(Cl)c1`: the activity change, negative = inhibition in test [1] is -1.15%; in test [2], 0%; in test [3], 4.62%; in test [4], -8%; in test [5] it was -3.58%.

In the case of `Cc1nc2ccccc2n1CCNS(=O)(=O)c1ccc(Cl)cc1`, the activity change, negative = inhibition in test [1] is -5.75%; in test [2] it was 5.65%; in test [3] it was -2.84%; in test [4], 0.668%; in test [5] it was 3.86%.

For `O=C(CC1CCCN(c2cn[nH]c(=O)c2)C1)N1CCCCCC1` (stereo not given), the activity change, negative = inhibition was -2.87% in test [1]; -4.7% in test [2]; -5.63% in test [3]; -8.56% in test [4]; -2.34% in test [5].
